This is one part of the list. At the low end of the ranking, values are background and their order means little.

These results are taken from paper PMC10668032.

The target of this assay is SIX1 homeodomain (reference allele) (UniProt Q15475). Description: universal protein binding microarray. The settings on record: Universal all-10-mer PBM (8x60K, AMADID 030236), 300 nM GST-tagged protein, Alexa Fluor 488 anti-GST; buffer, salt, pH and temperature not stated; high values mean tight binding; most listed sequences are background and not binding sites; double strand, one strand shown.
For the sequence AACCGACT, the binding signal is -0.173 E-score.

On to AACTCAGA, for which the binding signal was -0.0228 E-score.

As for CGCTGGAG, the binding signal is -0.111 E-score. As to CCGTTTAG, the binding signal came to 0.0892 E-score.

With GACAGTCA, the binding signal is -0.259 E-score.

On to AAAAACTC, for which the binding signal is -0.0506 E-score. Next, ATGGTGTA: 0.305 E-score.

GATTTCAC: the binding signal was 0.056 E-score. In the case of AACAACGC it was -0.0876 E-score; in that of ATCCTGAC, 0.228 E-score; in that of GGGATCAA, 0.386 E-score. In the case of TAACAGTA it was -0.0329 E-score. Next, CAGCGTCA: 0.0347 E-score.

CCCCCAGC: the binding signal was -0.196 E-score. In the case of CTAAAGCA it was -0.185 E-score; in that of ACCTGCGT, -0.0701 E-score. Next, AGCATGGC: -0.309 E-score. Next, TACTCCTA: 0.096 E-score; ACGTCCGA: -0.0253 E-score. For the sequence TAAGGAGA, the binding signal worked out at 0.0208 E-score.

For CACGCCGA, the binding signal was -0.0244 E-score. With TAGGAGCA, the binding signal was -0.202 E-score.

AAACCGGC: the binding signal is 0.0397 E-score. Next, CGCAACCG: 0.0596 E-score. In the case of ATGTAGCA it was -0.0886 E-score; in that of AATCCTTC, 0.0148 E-score; in that of GACCGACA, -0.0563 E-score. Regarding GCAGGAGA, the binding signal came out at 0.153 E-score. In the case of GAAGATAA it was 0.154 E-score. Next, AACTACAG: -0.126 E-score.

On to CTGCAGCA, for which the binding signal was -0.0458 E-score. In the case of GCTCCCCA it was -0.127 E-score. Next, ATGCAAAA: -0.104 E-score; CACTAATA: 0.215 E-score. Next, ATAATAGG: 0.168 E-score; ATCTATGA: 0.16 E-score. AAAGATGC: the binding signal was -0.276 E-score. GCTTTCTA: the binding signal was -0.0932 E-score. In the case of GTCACTAA it was -0.0161 E-score; in that of AAACGCAG, -0.0959 E-score; in that of CGATTTCC, -0.264 E-score. Next, AAGATTAT: 0.154 E-score. Next, ACGCGGCC: -0.218 E-score. AAGGCTAT: the binding signal was 0.149 E-score.

For AACTGCGC, the binding signal is -0.102 E-score.

In the case of TAAATATA, the binding signal was 0.14 E-score. Next, AAATCCCT: 0.0687 E-score; AAGAAACA: -0.197 E-score; CGCTCACA: -0.0331 E-score. Next, AATCAACC: -0.205 E-score. On to CGTGGGAA, for which the binding signal was -0.218 E-score.

In the case of GACTTGGA, the binding signal amounted to 0.0302 E-score. TTCGGCAA: the binding signal is -0.191 E-score. Next, GGAAAGCC: -0.176 E-score. With AAACGTGC, the binding signal was -0.358 E-score.

Take AGCCCCAC: the binding signal turned out to be 0.0896 E-score. Next, AACGAATC: 0.0888 E-score; GGTTTTAC: -0.101 E-score. In the case of CTACGTAC it was 0.0897 E-score. Next, AAGGGAAC: -0.233 E-score; CCTGCCCG: -0.008 E-score. For the sequence AAAGGCGA, the binding signal is -0.0981 E-score. Next, GGTCCTAA: -0.0964 E-score; AAGCCTCG: -0.159 E-score.

As to GACAAGCC, the binding signal is -0.17 E-score. In the case of GTGGGACA it was -0.114 E-score.

AGTTGCTC: the binding signal is -0.0738 E-score.

In the case of ATCGAAAG, the binding signal was -0.00986 E-score. With ATTCAGTC, the binding signal was -0.253 E-score. Next, CCGAAGCG: -0.0645 E-score; ATGACAAG: 0.0631 E-score; ACCCAATA: 0.158 E-score.

GAGTCCGC: the binding signal was -0.0457 E-score. In the case of AGTTCCGC, the binding signal is -0.173 E-score.

On to GACTGGTA, for which the binding signal is 0.108 E-score. In the case of CACATGGC it was -0.233 E-score. Next, ATTGGAGC: -0.0555 E-score. In the case of CTAGTTGC it was -0.181 E-score. With ATGACATC, the binding signal was -0.166 E-score. In the case of GCAGATAA it was 0.0799 E-score; in that of AGTTAATC, 0.182 E-score. In the case of CGTGGAAC it was -0.242 E-score; in that of TAGGGAGA, 0.177 E-score; in that of CTCACTTC, 0.0807 E-score. Next, TAGTCTCA: 0.0193 E-score; CCGTACCC: 0.0343 E-score; AAGACTGG: -0.0946 E-score. Consider TTGACCAA, for which the binding signal was -0.208 E-score.

Take ACTAATTC: the binding signal was -0.0862 E-score. Turning to AATGTCCG, the binding signal is -0.125 E-score. In the case of ACCTTCGC it was -0.0658 E-score; in that of ACATAGCT, 0.0301 E-score.

Take AAATACAA: the binding signal was -0.0286 E-score. In the case of GGCCTCCC it was -0.119 E-score; in that of AGCAACTA, -0.0228 E-score. In the case of ACGCTCAG it was -0.0501 E-score.

For the sequence TCTTTGAA, the binding signal was -0.191 E-score. With AATGTCCT, the binding signal was -0.0928 E-score. In the case of GGTTGATA it was 0.384 E-score.

Regarding ACGCAACC, the binding signal was -0.168 E-score. Next, CCGCCTCG: -0.0523 E-score; TACAGTAA: 0.0323 E-score; AATTTCAA: -0.287 E-score. In the case of AGTGAACC it was 0.088 E-score; in that of CTATCGAG, 0.157 E-score; in that of CTGTCAGA, 0.0621 E-score.

ATGAAGTA: the binding signal was 0.019 E-score. In the case of ACCGAGTC it was -0.245 E-score; in that of CAGTCCAG, -0.125 E-score. With CCTAGGAA, the binding signal was -0.116 E-score. Next, AGTAATCA: 0.00702 E-score; AAGCGCGA: -0.085 E-score. In the case of CACAATTA it was -0.0412 E-score; in that of AGATGAAT, 0.0345 E-score; in that of AGCATCCC, -0.0543 E-score. Take TCGTCAAA: the binding signal was 0.0558 E-score. On to AGTCATAC, for which the binding signal is -0.102 E-score. Next, CGCGCTCC: -0.116 E-score. Next, CGTCACAA: -0.152 E-score; CCTTTACC: -0.146 E-score. As for CGTCTCAA, the binding signal was 0.286 E-score. For GAACCCAA, the binding signal is -0.0484 E-score. Next, AGGTTTAA: 0.104 E-score. As to GAACGGTA, the binding signal is -0.05 E-score.

Consider GGTAGAGA, for which the binding signal was -0.0136 E-score.

Turning to CCATTCCG, the binding signal is -0.212 E-score. Regarding AACGAAAT, the binding signal is -0.179 E-score. Next, TAACCATA: 0.0355 E-score; GTCGCCTA: -0.101 E-score. Next, AAAGACGT: -0.334 E-score. In the case of CACGGTGG it was 0.154 E-score; in that of AATATTTA, -0.0615 E-score; in that of CACCTTAC, -0.0657 E-score.

Turning to CTGACTAA, the binding signal was -0.221 E-score. In the case of TACGAAGA it was 0.0765 E-score; in that of CAAGTCCC, -0.205 E-score. In the case of AAATTCTA it was -0.243 E-score; in that of AATGAAGC, -0.221 E-score; in that of CATCACTC, -0.0876 E-score. Regarding GAGGTTGC, the binding signal was -0.321 E-score. In the case of AGAAAGAC it was -0.154 E-score; in that of CTCCGTGC, -0.126 E-score; in that of CGTATGGC, 0.0659 E-score. Take AAGTCTTG: the binding signal was -0.29 E-score. Next, AAGATAGA: -0.0145 E-score.

As to CAAGGGCG, the binding signal is -0.202 E-score. In the case of ATCGTGTG it was 0.245 E-score; in that of CCTCGCCG, -0.138 E-score; in that of CGCCACCA, -0.211 E-score. Next, CCAATTGG: 0.0227 E-score; GATTACCA: -0.154 E-score; GTTCTAGA: 0.0377 E-score. In the case of CTGACAAC it was -0.17 E-score. For the sequence CAGGTCGA, the binding signal was -0.0081 E-score. Next, CTTGTCTA: -0.104 E-score. As to CTCCAAAC, the binding signal stood at 0.0451 E-score. In the case of CTCTACCA it was -0.0845 E-score; in that of GATCCAGA, 0.342 E-score; in that of ACATTAGT, 0.00788 E-score. In the case of GCGTAATA it was 0.0553 E-score; in that of CTGCCGAA, -0.0253 E-score. Next, CTTACCTA: -0.0542 E-score.

As to GGTCAACA, the binding signal was -0.00404 E-score. On to CTGAGACC, for which the binding signal stood at 0.261 E-score.

In the case of CTAGACGA, the binding signal was -0.0272 E-score. Next, CCGCACGG: 0.0715 E-score. In the case of GACATTAC it was -0.134 E-score. Next, CATGTCCC: -0.193 E-score; CGGCCTAA: 0.0305 E-score; CAACGAAG: -0.141 E-score.

Take ACCACTGA: the binding signal was -0.117 E-score. Next, GAAACGAC: -0.0828 E-score.
